PMC12820563
Some of the results follow. The list includes weakly bound sequences.

The sequences below were run against T1, MBP-FoxP3dN (UniProt Q99JB6) (assay: PD-seq (MBP pull-down with sequencing)). Settings: 20 mM Tris-HCl pH 7.5, 100 mM NaCl, 1.5 mM MgCl2, 0.4 uM protein, 0.1 uM dsDNA library, 30 min, room temperature, amylose pull-down; high values mean tight binding; double strand, one strand shown.
T1 sequence: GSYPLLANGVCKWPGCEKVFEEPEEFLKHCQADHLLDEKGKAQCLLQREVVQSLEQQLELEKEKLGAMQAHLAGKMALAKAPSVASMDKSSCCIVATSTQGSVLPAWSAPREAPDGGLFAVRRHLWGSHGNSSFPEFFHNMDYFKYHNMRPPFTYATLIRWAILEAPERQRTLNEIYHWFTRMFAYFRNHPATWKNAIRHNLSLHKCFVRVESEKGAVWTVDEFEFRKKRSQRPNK
“GATGATTGTTCTCCCAGCTGATGAATTGTAATCATCGAGTAAACAAATTTTCCTAATCTTTCTGTTCAAGCGCCATCTAC” showed a binding signal (RPM ratio (pull-down/input)) of 1.66.
With “GATGATTGTTCTCCCAGCTGATGAATTGGGCGGGTCGAGTAAACAAATTTTCCTAATCTTTCTGTTCAAGCGCCATCTAC” the binding signal (RPM ratio (pull-down/input)) was 0.476.
“GATGATTGTTCTCCCAGCTGATGAATTCGATCGGTCGAGTAAACAAATTTTCCTAATCTTTCTGTTCAAGCGCCATCTAC” was tested, and the binding signal (RPM ratio (pull-down/input)) was 0.26.
“GATGATTGTTCTCCCAGCTGATGAATTTGCATGATCGAGTAAACAAATTTTCCTAATCTTTCTGTTCAAGCGCCATCTAC” was tested, and the binding signal (RPM ratio (pull-down/input)) was 1.63.
Sequence “GATGATTGTTCTCCCAGCTGATGAATTACCTGGCTCGAGTAAACAAATTTTCCTAATCTTTCTGTTCAAGCGCCATCTAC” has a binding signal (RPM ratio (pull-down/input)) of 0.265.
With “GATGATTGTTCTCCCAGCTGATGAATTTGACAGGTCGAGTAAACAAATTTTCCTAATCTTTCTGTTCAAGCGCCATCTAC” the binding signal (RPM ratio (pull-down/input)) was 0.38.
“GATGATTGTTCTCCCAGCTGATGAATTACAGACTTCGAGTAAACAAATTTTCCTAATCTTTCTGTTCAAGCGCCATCTAC” gave a binding signal (RPM ratio (pull-down/input)) of 0.496.
In the case of “GATGATTGTTCTCCCAGCTGATGAATTAAGCCGGTCGAGTAAACAAATTTTCCTAATCTTTCTGTTCAAGCGCCATCTAC”, the binding signal (RPM ratio (pull-down/input)) is reported as 0.368.
“GATGATTGTTCTCCCAGCTGATGAATTAGCCGCCTCGAGTAAACAAATTTTCCTAATCTTTCTGTTCAAGCGCCATCTAC” showed a binding signal (RPM ratio (pull-down/input)) of 0.547.
“GATGATTGTTCTCCCAGCTGATGAATTATTACATTCGAGTAAACAAATTTTCCTAATCTTTCTGTTCAAGCGCCATCTAC” was tested, and the binding signal (RPM ratio (pull-down/input)) was 0.591.
In the case of “GATGATTGTTCTCCCAGCTGATGAATTTCACGAGTCGAGTAAACAAATTTTCCTAATCTTTCTGTTCAAGCGCCATCTAC”, the binding signal (RPM ratio (pull-down/input)) is reported as 0.245.
“GATGATTGTTCTCCCAGCTGATGAATTGTTTTAGTCGAGTAAACAAATTTTCCTAATCTTTCTGTTCAAGCGCCATCTAC” gave a binding signal (RPM ratio (pull-down/input)) of 1.21.
Work on “GATGATTGTTCTCCCAGCTGATGAATTCCTGGTCTCGAGTAAACAAATTTTCCTAATCTTTCTGTTCAAGCGCCATCTAC” yielded a binding signal (RPM ratio (pull-down/input)) of 0.287.
Work on “GATGATTGTTCTCCCAGCTGATGAATTACCCGAGTCGAGTAAACAAATTTTCCTAATCTTTCTGTTCAAGCGCCATCTAC” yielded a binding signal (RPM ratio (pull-down/input)) of 0.183.
In the case of “GATGATTGTTCTCCCAGCTGATGAATTTAACCGATCGAGTAAACAAATTTTCCTAATCTTTCTGTTCAAGCGCCATCTAC”, the binding signal (RPM ratio (pull-down/input)) is reported as 0.215.
“GATGATTGTTCTCCCAGCTGATGAATTGGGTAGGTCGAGTAAACAAATTTTCCTAATCTTTCTGTTCAAGCGCCATCTAC” gave a binding signal (RPM ratio (pull-down/input)) of 0.375.
Sequence “GATGATTGTTCTCCCAGCTGATGAATTGAACGGCTCGAGTAAACAAATTTTCCTAATCTTTCTGTTCAAGCGCCATCTAC” has a binding signal (RPM ratio (pull-down/input)) of 0.211.
Work on “GATGATTGTTCTCCCAGCTGATGAATTACTTTAGTCGAGTAAACAAATTTTCCTAATCTTTCTGTTCAAGCGCCATCTAC” yielded a binding signal (RPM ratio (pull-down/input)) of 0.408.
“GATGATTGTTCTCCCAGCTGATGAATTCTCACCTTCGAGTAAACAAATTTTCCTAATCTTTCTGTTCAAGCGCCATCTAC” was tested, and the binding signal (RPM ratio (pull-down/input)) was 0.268.
With “GATGATTGTTCTCCCAGCTGATGAATTATGGGCCTCGAGTAAACAAATTTTCCTAATCTTTCTGTTCAAGCGCCATCTAC” the binding signal (RPM ratio (pull-down/input)) was 0.571.
“GATGATTGTTCTCCCAGCTGATGAATTTCGCAGTTCGAGTAAACAAATTTTCCTAATCTTTCTGTTCAAGCGCCATCTAC” showed a binding signal (RPM ratio (pull-down/input)) of 1.36.
“GATGATTGTTCTCCCAGCTGATGAATTCAGCCAATCGAGTAAACAAATTTTCCTAATCTTTCTGTTCAAGCGCCATCTAC” was tested, and the binding signal (RPM ratio (pull-down/input)) was 0.533.
Work on “GATGATTGTTCTCCCAGCTGATGAATTGTGATTGTCGAGTAAACAAATTTTCCTAATCTTTCTGTTCAAGCGCCATCTAC” yielded a binding signal (RPM ratio (pull-down/input)) of 4.91.
In the case of “GATGATTGTTCTCCCAGCTGATGAATTCTCGGGTTCGAGTAAACAAATTTTCCTAATCTTTCTGTTCAAGCGCCATCTAC”, the binding signal (RPM ratio (pull-down/input)) is reported as 0.269.
Work on “GATGATTGTTCTCCCAGCTGATGAATTTATATTTTCGAGTAAACAAATTTTCCTAATCTTTCTGTTCAAGCGCCATCTAC” yielded a binding signal (RPM ratio (pull-down/input)) of 1.28.
For “GATGATTGTTCTCCCAGCTGATGAATTATCGACCTCGAGTAAACAAATTTTCCTAATCTTTCTGTTCAAGCGCCATCTAC”, the binding signal (RPM ratio (pull-down/input)) was 0.283.
Work on “GATGATTGTTCTCCCAGCTGATGAATTGGAGTTGTCGAGTAAACAAATTTTCCTAATCTTTCTGTTCAAGCGCCATCTAC” yielded a binding signal (RPM ratio (pull-down/input)) of 0.805.
“GATGATTGTTCTCCCAGCTGATGAATTTTCTATTTCGAGTAAACAAATTTTCCTAATCTTTCTGTTCAAGCGCCATCTAC” showed a binding signal (RPM ratio (pull-down/input)) of 0.261.
“GATGATTGTTCTCCCAGCTGATGAATTCCCGCCCTCGAGTAAACAAATTTTCCTAATCTTTCTGTTCAAGCGCCATCTAC” was tested, and the binding signal (RPM ratio (pull-down/input)) was 0.46.
Work on “GATGATTGTTCTCCCAGCTGATGAATTCTGTATATCGAGTAAACAAATTTTCCTAATCTTTCTGTTCAAGCGCCATCTAC” yielded a binding signal (RPM ratio (pull-down/input)) of 5.72.
With “GATGATTGTTCTCCCAGCTGATGAATTTCCGATGTCGAGTAAACAAATTTTCCTAATCTTTCTGTTCAAGCGCCATCTAC” the binding signal (RPM ratio (pull-down/input)) was 0.35.
